The record followed here is PubChem BioAssay AID1963576 (National Center for Advancing Translational Sciences (NCATS), 2024).

The structures appear in SMILES notation. The whole screen tested about 46,000 compounds, of which about 60 (0.1%) were called active. Roughly 3% stayed inconclusive and do not appear here. The call rests on the fitted dose curve; in most records, active means well fitted inhibition curve with a large enough effect; inconclusive means small, poorly fitted or top-dose-only effect; inactive means no such curve, though single readings can be large or run the other way. This is one part of the list.

The assay can be described thus: Primary qHTS assay for Inhibitors of ovarian cancer metastasis using an organotypic tumor microenvironment (TME) model. Further: nearly all actives have a fitted effect of over 65% in size.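 On activity change, negative = inhibition: plate controls were DMSO wells for no effect and tomatine positive control wells for full effect.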 The settings on record: SKOV3ip1-GFP adhesion/invasion on 3D omental model, fluorescence; series mostly up to 45.8 µM; activity change, negative = inhibition: at the top concentration. In outline: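 Primary human omental fibroblast/mesothelial 3D culture pre-formed 48 h. SKOV3ip1-GFP cells added with compounds (0.36-46 umol/L), incubated 2 h RT/16 h 37 C, fixed; GFP cells quantified at 488/509 nm.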
(qHTS replaces the single test concentration by a dilution series.)
On to `Cc1c(C)n(C)c2ccc(C(=O)NCCCN3CCCCC3)cc12`, for which the “activity change, negative = inhibition” value is inactive: -3.5%.

In the case of `CCc1ccc(-c2ccc(C(=O)Oc3ccc(Br)cc3)cc2)nc1`, the “activity change, negative = inhibition” value is inactive: 13.9%.

Regarding `O=C(c1ccc2c(Cl)c3c(nc2c1)CCCC3)N1CCN(c2cccc(Cl)c2)CC1`, the result was inactive.

As for `Cc1ccc(-c2nc(SCc3ccc(Br)cc3)n3[nH]c(=O)cc3n2)cc1`, the “activity change, negative = inhibition” value was inactive: 5.35%.

With `Cc1c(-c2cccc(NC(=O)C(C)(C)C)c2)nc2ncccn12`, the “activity change, negative = inhibition” value is inactive: 11.5%.

In the case of `CN1CC(=O)N(CC(=O)Nc2ccc(Cl)c(C(F)(F)F)c2)c2ccccc2C1=O`, the outcome was inactive.

Regarding `COc1ccc(CNc2ncnc3c2c(-c2ccccc2)cn3-c2ccccc2)cc1`, the outcome was inactive.

On to `CCN(CC)S(=O)(=O)c1ccc(C(=O)N=c2sc3cccc(OC)c3n2C)cc1`, for which the “activity change, negative = inhibition” value was inactive: -10.9%.

For `Cc1ccc(S(=O)(=O)c2nc(-c3ccc(Cl)cc3)oc2N2CCCCCC2)cc1`, the “activity change, negative = inhibition” value is inactive: -3.27%.

In the case of `COCCc1nn2c(=O)cc(COC(=O)c3ccc(C(C)(C)C)cc3)nc2s1`, the “activity change, negative = inhibition” value is inactive: 0.621%.

As to `Cc1ccc(Cn2ccc(NC(=O)c3cc(-c4ccc(Cl)c(Cl)c4)on3)n2)cc1`, the “activity change, negative = inhibition” value was inactive: -14.4%.

For the compound `Cc1nnc(SCC(=O)NCc2ccccc2F)c2nn(-c3ccc(Cl)cc3)c(C)c12`, the call was inactive.

`CCC1CN(C(=O)N2CCC(C(=O)NCc3cccs3)CC2)c2cc(C)ccc2O1` (stereo not drawn): the result was inactive.

As for `Cc1ccc2nc(N3CCN(c4cccc(C)c4C)CC3)c3nnnn3c2c1`, the “activity change, negative = inhibition” value is inactive: 9.66%.

Regarding `COc1ccccc1CNC(=O)c1cccc(Nc2nc3ccccc3n3nnnc23)c1`, the “activity change, negative = inhibition” value was inactive: -12.5%.

Take `COc1ccc(NC(=O)Cc2csc(C)n2)cc1`: the “activity change, negative = inhibition” value is inactive: 1.26%.

For the compound `CC(C)(C)C(=O)Nc1c(C(=O)N2CCN(c3ccc(F)cc3)CC2)oc2ccccc12`, the “activity change, negative = inhibition” value is inactive: -4.66%.

Take `Cc1ccccc1Nc1c2c(nc3nncn13)CCC2`: the “activity change, negative = inhibition” value was inactive: 9.63%.

On to `CCc1cccc(NC(=O)CSc2ncc3c(n2)-c2ccccc2N(Cc2ccccc2C)S3(=O)=O)c1`, for which the “activity change, negative = inhibition” value was inactive: 0.94%.

`CCOc1ccc(-c2cc(C(=O)NCc3ccccc3)c3c(-c4ccc(CC)cc4)[nH]nc3n2)cc1`: the outcome was inactive.

Turning to `O=C(CC1(O)C(=O)N(CCc2ccccc2)c2ccc(Br)cc21)c1ccccc1O` (stereo not drawn), the “activity change, negative = inhibition” value is inactive: -8.44%.

In the case of `CC(=O)c1ccc(NC(=O)NCCc2c[nH]c3ccccc23)cc1`, the “activity change, negative = inhibition” value was inactive: 3.72%.

In the case of `CC1CCN(CCNC(=O)c2ccc(Cn3c(SCc4ccccc4)nc4cccnc43)cc2)CC1`, the compound was classed as inactive.

With `Cc1cccc(NC(=O)CSc2nnc(CNC(=O)c3c(F)cccc3Cl)o2)c1C`, the call was inactive.

For `CC(C)c1nn2c(=O)cc(COC(=O)c3ccc(NC(=O)CCc4ccccc4)cc3)nc2s1`, the compound was classed as inactive.

As to `CCCCCn1c(=O)[nH]c2cc(C(=O)Nc3ccc(F)cc3)ccc2c1=O`, the compound was called inactive.

For the compound `Cc1cccc(-c2nc3scc(CCNC(=O)c4ccccc4Cl)n3n2)c1`, the “activity change, negative = inhibition” value was inactive: 4.91%.

In the case of `CCOC(=O)C1CCN(S(=O)(=O)c2cc(-c3cc(C)no3)ccc2C)CC1`, the “activity change, negative = inhibition” value is inactive: -9.88%.

Take `Cc1ccc(-n2ncc3c(NCCCc4ccccc4)ncnc32)cc1C`: the compound was classed as inactive.

On to `Cc1ccc(CCNc2nc3c(S(=O)(=O)c4ccc(C)cc4)nnn3c3ccsc23)cc1`, for which the “activity change, negative = inhibition” value was inactive: 13.9%.

On to `CC(C)c1ccc(NC(=O)c2ccc(NC(=O)CCS(=O)(=O)c3cccs3)cc2)cc1`, for which the “activity change, negative = inhibition” value is inactive: -6.5%.

Consider `CCOC(=O)c1[nH]c(C)c(CCC(=O)Nc2ccc(N(CC)CC)cc2C)c1C`, for which the “activity change, negative = inhibition” value is inactive: 15.4%.

For `CCS(=O)(=O)N1CC(=O)N(c2cccc(C)c2C)C(C)(C(=O)NC2CCCCC2)C1` (stereo not drawn), the compound was classed as inactive.

On to `Cc1ccc(-c2c3c(=O)n(C)c(=O)n(C)c3c3c(C(F)(F)F)nc4ccccc4n23)cc1`, for which the “activity change, negative = inhibition” value was inactive: -22.6%.

`Cc1c(NC(=O)c2sc3c([N+](=O)[O-])cccc3c2Cl)cccc1-c1nc2ccccc2o1`: the “activity change, negative = inhibition” value was inactive: -8.88%.

With `CSc1ccc(CCNC(=O)C(C)n2c(C)c3cnn(-c4ccccc4)c(=O)c3c2C)cc1` (stereo not drawn), the “activity change, negative = inhibition” value is inactive: 41%.

In the case of `COc1cc(OC)cc(C(=O)Nc2c(C(=O)Nc3ccc(F)cc3)oc3ccccc23)c1`, the compound was called inactive.

On to `COc1cc(NC(=O)Cn2c(C)cc3ccccc3c2=O)cc(OC)c1OC`, for which the “activity change, negative = inhibition” value is inactive: -3.26%.

Turning to `CCc1ccc(CNC(=O)CCN2C(=O)COc3ccccc32)cc1`, the “activity change, negative = inhibition” value was inactive: 5.68%.

`Cc1nc(-c2ccc(F)cc2)sc1CCNC(=O)c1ccco1`: the “activity change, negative = inhibition” value is inactive: -8.5%.

Regarding `CC(=O)Nc1cc(C(=O)NCc2ccc(F)cc2Cl)ccc1Sc1ccc(Cl)cc1`, the “activity change, negative = inhibition” value is inactive: -4.36%.

For the compound `Cc1ccc(/C=C/c2onc(C)c2S(=O)(=O)N2CCC(C(=O)N3CCOc4ccccc43)CC2)cc1`, the “activity change, negative = inhibition” value is inactive: -6.67%.

With `O=C(Cn1c(=O)n(Cc2ccccc2)c(=O)c2oc3ccccc3c21)Nc1ccc(Cl)cc1`, the “activity change, negative = inhibition” value was inactive: -10.9%.

Turning to `COC(=O)c1cc2oc(C)cc2n1CC(=O)Nc1ccc(C)cc1C`, the “activity change, negative = inhibition” value is inactive: 6.41%.

With `COc1ccccc1N(Cc1cc2cccc(C)c2[nH]c1=O)C(=O)c1cccc(Cl)c1`, the “activity change, negative = inhibition” value is inactive: -21.8%.

Turning to `COc1ccc(CNC(=O)CCCc2cn(C)c3ccccc23)c(OC)c1`, the “activity change, negative = inhibition” value is inactive: 0.445%.

For `Oc1ccc(Cl)cc1Nc1nc2ccccc2n2cnnc12`, the “activity change, negative = inhibition” value is inactive: 1.16%.

Consider `O=C(CCS(=O)(=O)c1ccc2c(c1)NC(=O)CO2)Nc1cccc(C(F)(F)F)c1`, for which the “activity change, negative = inhibition” value was inactive: 34.9%.
